The list shows a part of the results.

These results are taken from paper PMC12136788.

Sequences and labels used below:
B1: chr17:57972098:57972209:-|3pUTR|ENSG00000136451|unk|total|mutant (ssRNA)
RNA: GGGAGUUCUACAGUCCGACGAUCCCCGAAUGUGGUUGUCAGAACCCUGAAAGUAUCCGUUCUAAAAAAAAAAAGAUAUAUACCCGAAGUAAUUGUUUUAUCAAUUCAUUGUAUAAUAAACAGGAGUGAGACUUCAUUGUAUGACAACAGAGGAUUGAGCAUCA
B2: ENSG00000070961:be:win_851|CDS|ENSG00000070961|bound_else_gene|NA|bound_elsewhere_windowed (ssRNA)
RNA: GGGAGUUCUACAGUCCGACGAUCCUGGAAUUAUCUUUACCUUACUUGGAGCUGGAGGUGAAGAGGAAGAGAAGAAAGAUGAGAAGAAAAAGGAAAAGAAAAAUAAGAAACAAGAUGGAGCUAUUGAGAAUCGCAACAAAGCAACAACAGAGGAUUGAGCAUCA
B3: chr1:23094017:23094118:-|CDS|ENSG00000169641|unk|total|mutant (ssRNA)
RNA: GGGAGUUCUACAGUCCGACGAUCCUCCAGAAAGCAGAGGAUGAACUCCUGGAUCUCCAGGACAAGGUGAUUCAGGCAGAAGGCCGCAACUCCAGCAUGUUGGCGGAGAUUGAAGUGCUGCGCCAGCGGGUGCUGAGAAUUGAACAACAGAGGAUUGAGCAUCA
B4: ENSG00000143742:stop:overlap|stop_codon|ENSG00000143742|stop_codon|NA|stop_codon (ssRNA)
RNA: GGGAGUUCUACAGUCCGACGAUCAAUAUAGGCAUUCUGAUGGGAACUUGUGUGUUAAAGUAACAGAUGAUUUAGUUGAUCAUUAGUUCCUGUUGUUUAAAACUCAUGUGAACCUUUAAGAUGGGCUGAAGAAAAGUGGAUCUGCAACAGAGGAUUGAGCAUCA
B5: ENSG00000147130:stop:overlap|stop_codon|ENSG00000147130|stop_codon|NA|stop_codon (ssRNA)
RNA: GGGAGUUCUACAGUCCGACGAUCAAAAGCGGUUCUGCAACACAACCUGCUUGGGGGCGUACAAGAAGGUGGGGCCGAGGGAGUAGUGCAUUAGAGGGCUGUGGAAGGGGGUGUGGUUCUUGGGUUAUAAAUAAAGGUGGCUGACAACAGAGGAUUGAGCAUCA
B6: chr1:151800263:151800922:-|three_prime_utr|ENSG00000213171|control|control|control (ssRNA)
RNA: GGGAGUUCUACAGUCCGACGAUCCCAAGUCCGCUUCAGAUACCAAAGGGGAAGACAGAACCAAGGCUGCUUGAACCAGAACCUAGUCCCGAGCAGCACCGCUCUCCUGCACCUCCCGCCUGCGUUGUGCCUCCUGCCGGAGAGCAACAGAGGAUUGAGCAUCA
B7: chr3:58171454:58171555:+|3pUTR|ENSG00000136068|msi1|FALSE|unique (ssRNA)
RNA: GGGAGUUCUACAGUCCGACGAUCGGUGAUUAUUUCUUGCAGAAUCACCACACGAGACCAUCCCGGCAGUCAUGGUUUUGCUUUAGUUUUCCAAGUCCGUUUCAGUCCCUUCCUUGGUCUGAAGAAAUUCUGCAGUGGCGAGCACAACAGAGGAUUGAGCAUCA
B8: chr9:133763799:133763900:-|3pUTR|ENSG00000160293|msi1|FALSE|unique (ssRNA)
RNA: GGGAGUUCUACAGUCCGACGAUCCGAACCGUUUCACUGUCAGCCUGCCCUCGGCGACCCAUCACUGGGUAUGCUAUUGUACAUAGAGGAAACCUGGGCUAGCCCCACCCAGAGCGCAGAGGAGGGGGCACCGACAGCGCUGCGCAACAGAGGAUUGAGCAUCA
B9: chr1:86742159:86742388:+|CDS|ENSG00000097033|unk|FALSE|bound_elsewhere (ssRNA)
RNA: GGGAGUUCUACAGUCCGACGAUCUGUACCAUCAGUUUUACCAAAUGCGAUUGGUUCUUCUGCCAUGGCUUCAACAAGUGGCCUAGUAAUCACCUCUCCUUCCAACCUCAGUGACCUUAAGGAGUGUAGUGGCAGCAGAAAGGCCAACAGAGGAUUGAGCAUCA
B10: ENSG00000070961:be:win_4501|3pUTR|ENSG00000070961|bound_else_gene|NA|bound_elsewhere_windowed (ssRNA)
RNA: GGGAGUUCUACAGUCCGACGAUCCCUUUUGUUCAGAAUUUAGUAGAUUGUUUAAUGCAGGACAUCAACUACAUAAUGAAAGAUGCUUGAAAUGCUUUUGUUAUUUCAGGCAAAUCAAAUUAAAUCAGACUAUCAAACUACAAGCAACAGAGGAUUGAGCAUCA
B11: ENSG00000169710:stop:overlap|stop_codon|ENSG00000169710|stop_codon|NA|stop_codon (ssRNA)
RNA: GGGAGUUCUACAGUCCGACGAUCCCAUCAUCAGCAUCAUCCACAGCUCCCUGGCUGAGCCACGCGUGAGCGUGCGGGAGGGCUAGGCCCGUGCCCCCGCCUGCCACCGGAGGUCACUCCACCAUCCCCACCCCACCCCACCCCCAACAGAGGAUUGAGCAUCA
B12: chr13:52036708:52036809:-|3pUTR|ENSG00000197168|unk|total|mutant (ssRNA)
RNA: GGGAGUUCUACAGUCCGACGAUCGCCGAACUUUUGAAUACCGCCAUUAAUAUUUUUACUUUAAAGUUUCUAUUAAGAAAUCUCCGGCCGGGCAGUCUCAUCACUUUGGGAGGCCAAGGCAGGCAGAUCAUGAGGUCAGGAGUUCAACAGAGGAUUGAGCAUCA
B13: chr17:35273046:35273147:+|3pUTR|ENSG00000166750|unk|FALSE|unique (ssRNA)
RNA: GGGAGUUCUACAGUCCGACGAUCAUUCCUAAGAGCAGAAGACUGCAAAAUAGUAAAUAUAUACCCAAAAGGGUCUAAUGGAUUAGUUUUUGGCAUAUCAGCACAUGAUAAUACUAUGAAGCCAUAAAAAAGAGAGAUCUCUAUCAACAGAGGAUUGAGCAUCA
B14: chr6:55753652:55755532:-|three_prime_utr|ENSG00000112175|control|control|control (ssRNA)
RNA: GGGAGUUCUACAGUCCGACGAUCUAAGGUUUAUGGCUGCAAUAAAAAGCAUACUUUCAGACAAACGGGGAAUUUCCUAAAAUUAGUCUGGCUCAUUUUGACUCUUUUCCUAUGUACAAUAUCAUGUAUAUAGUCAUUUUUAUUCAACAGAGGAUUGAGCAUCA
B15: chr3:11557766:11557867:-|3pUTR|ENSG00000144560|msi1|FALSE|unique (ssRNA)
RNA: GGGAGUUCUACAGUCCGACGAUCCUGGACUGCAGACUCUACCAAUCACGGGCAUUUUAUCUUCUCUGAACACUGCAGUUUGUUAGACUAGAGCUGAGGUUGGAGGAUUCCAUAGUGCUUUAAACGUGAUGCAUGUUUUAAUGGCAACAGAGGAUUGAGCAUCA
B16: chr3:185917260:185917361:-|3pUTR|ENSG00000136527|msi1|total|mutant (ssRNA)
RNA: GGGAGUUCUACAGUCCGACGAUCUGGCAAAAAGCAACAAUAAACAGUUUGAUUUUUACUUUUCUUUCUAACAUAUCAAUGCUCCGCAGAACUAUUCAGAUUGUCAGCCGUAAAUUUAAAGACAAAUGCCCGUUUUCCUCCAGUCAACAGAGGAUUGAGCAUCA
B17: chr7:32869766:32869881:-|CDS|ENSG00000170852|unk|total|mutant (ssRNA)
RNA: GGGAGUUCUACAGUCCGACGAUCAUGUACUGUUAUUUUCCAAGGUCUGACUCAUGGGCCGAAAUGGCCAUGAGACAGACCCGCCGGUCCUUUGCUUCAGCUGCAGCUUUUGGUGAUAAAAUUUUCUAUAUUGGAGGGUUGCAUCAACAGAGGAUUGAGCAUCA
B18: chr12:57626096:57626197:-|3pUTR|ENSG00000135454|msi1|total|mutant (ssRNA)
RNA: GGGAGUUCUACAGUCCGACGAUCGUGUCUCUGCAAUGCUGUGGGCACAAAAGAAGGGGCACCAGAGUCCCUGUGCAAACACCCCGACUCACUUCAUGGAUUCCAAAGCUCUCAGCUUCAUUUUAUCCGUUACGUCCGGUAAGGCAACAGAGGAUUGAGCAUCA
B19: chr2:42682433:42682535:+|CDS|ENSG00000057935|unk|total|mutant (ssRNA)
RNA: GGGAGUUCUACAGUCCGACGAUCUCACGCUAUGGAUACAUUGUACCGACACAGCUAUGAUUUGAGCAGUGCCAUCCGUGUCUCCGUACCACUCGGAGGACCUGUUUUAUGCAGAGAUGAAAUGGAGGAAUGGUCAGCCUCUGACAACAGAGGAUUGAGCAUCA
B20: chr4:55870735:55870847:+|CDS|ENSG00000090989|unk|FALSE|bound_elsewhere (ssRNA)
RNA: GGGAGUUCUACAGUCCGACGAUCGGCAUCUGAAAAACAAGUCAACAUCCUGAUGAAAUUGCUAGAUGAGGCUCUAAAGGAGGUAGAUCAGAUUGAAUUGAAACUGAGCAGUUAUGAGGAAAUGCUCCAAAGUGUAAAAGAACACAACAGAGGAUUGAGCAUCA
B21: chr10:113908677:113908778:+|3pUTR|ENSG00000196865|unk|FALSE|bound_elsewhere (ssRNA)
RNA: GGGAGUUCUACAGUCCGACGAUCAGCUAUGCUCCUUACUUACUUCUUUUAUUAUAAACAAAUUCCUUUGCUUUGGCUGAUACUAGCUGAGUCAUUGAUCAUCAUUGGUACCAUGAUAUUGUAAUCUAUGCUGCUAUUUGGCACCAACAGAGGAUUGAGCAUCA
B22: ENSG00000126524:stop:overlap|stop_codon|ENSG00000126524|stop_codon|NA|stop_codon (ssRNA)
RNA: GGGAGUUCUACAGUCCGACGAUCAGCUCAAGCCACUGAUCAAGGUCAUAGAAAGUGAAGAUUAUGGCCAACAGUUAGAAAUCUAGAGACGGAGUUUCACCGUGUUAGCCAGGACGGUCUUGAUCUCCUGACCUCAUGAUCCACCAACAGAGGAUUGAGCAUCA

This assay addresses MSI1 full-length (mouse, UniProt Q61474 1-362). Description: nsRBNS (natural sequence RNA bind-n-seq); RBNS binding buffer (assumed for nsRBNS): 25 mM Tris pH 7.5, 150 mM KCl, 3 mM MgCl2, 0.01% Triton X-100, 500 ug/ml BSA, 20 U/ml SUPERase-In, 4 C; UNK is unkempt and MSI1 is Musashi-1; names of the RNAs are library labels; protein concentration not given here; high values mean tight binding.
Chain of UniProt Q61474 (Q61474 whole entry): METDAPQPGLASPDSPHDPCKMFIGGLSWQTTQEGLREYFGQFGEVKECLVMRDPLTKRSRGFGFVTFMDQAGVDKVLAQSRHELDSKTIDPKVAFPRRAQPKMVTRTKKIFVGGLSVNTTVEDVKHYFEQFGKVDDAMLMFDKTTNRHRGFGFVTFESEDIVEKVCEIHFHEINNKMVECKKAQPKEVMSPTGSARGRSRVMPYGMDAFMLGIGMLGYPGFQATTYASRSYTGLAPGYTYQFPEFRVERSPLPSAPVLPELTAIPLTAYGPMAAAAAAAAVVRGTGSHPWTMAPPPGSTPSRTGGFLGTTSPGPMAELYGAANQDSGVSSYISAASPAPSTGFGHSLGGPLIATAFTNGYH
B1 displayed a binding signal of 0.711 enrichment R. As for B2, the figure is 0.724 enrichment R; as for B3, 0.282 enrichment R; as for B4, 0.53 enrichment R. As for B5, the binding signal came out at 0.498 enrichment R.

In turn, B6 showed a binding signal of 0.483 enrichment R. In turn, B7 showed a binding signal of 0.516 enrichment R.

B8: the binding signal worked out at 0.554 enrichment R. The result for B9 reads 0.612 enrichment R; that for B10, 0.644 enrichment R. As for B11, the figure is 0.237 enrichment R.

As to B12, the binding signal stood at 1.22 enrichment R. As for B13, the figure is 4.14 enrichment R; as for B14, 0.571 enrichment R; as for B15, 1.35 enrichment R. As for B16, the figure is 0.45 enrichment R; as for B17, 0.278 enrichment R; as for B18, 0.39 enrichment R.

B19 returned a binding signal of 0.345 enrichment R. Consider B20, for which the binding signal was found to be 0.437 enrichment R.

Turning to B21, the binding signal was determined as 3.92 enrichment R.

B22 yielded a binding signal of 0.608 enrichment R.
